The results in this text go back to the supplement of paper PMC8183993.

“And” between values parts separate entries of the source, which are not always exact repeats. Identical values can stand only once. Counter-ions that a name gives are not always drawn. ± gives the standard deviation of the averaged measurements. Whole data set: some 3,200 compounds, median “nuclei count (viability) relative to DMSO” near 99, cut for the lowest 2% near 16. Some of the results follow.

The experiment concerns U2OS. Nature of the experiment: nuclei count (viability) relative to DMSO (% of DMSO); higher = more viable cells. To be noted: 10 µM; 24 h. As for the experimental part:
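Primary image-based screen in U2OS cells: compounds at 10 uM for 24 h, then a 1 h o-propargyl-puromycin (OPP) pulse, click labelling, and high-throughput microscopy. Mean cytoplasmic OPP intensity and nuclei count were normalised to DMSO wells within each plate (DMSO = 100) and averaged over triplicate plates.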
Compound `CC1=C(/C=C/C(C)=C/C=C/C(C)=C/C(=O)O)C(C)(C)CCC1` [Retinoic acid, all trans] gave a nuclei count of 93.9.
With `CC1=C(/C=C/C(C)=C/C=C/C(C)=C/C(=O)O)C(C)(C)CCC1` [Retinoic Acid] the figure was 103; with `CC1=C(/C=C/C(C)=C/C=C/C(C)=C/C(=O)O)C(C)(C)CCC1` [Retinoic acid], 106 ± 6.2; with `N[C@@H](CCC(=O)N[C@@H](CS)C(=O)NCC(=O)O)C(=O)O` [Glutathione], 101.
For `c1ccc(-c2[nH]ncc2-c2ccnc3ccccc23)nc1`, the nuclei count was 106.
Under `CCC1(c2ccccc2)NC(=O)N(C)C1=O` (configuration not stated) [Mephenytoin] stands 107; under `NC(=O)CNCCC(c1ccccc1)c1ccccc1` [N20C hydrochloride], 99.4; under `CCc1c(C)[nH]c2c1C(=O)C(CN1CCOCC1)CC2` (configuration not stated) [Molindone hydrochloride], 101.
`C#Cc1cccc(Nc2ncnc3cc4c(cc23)OCCOCCOCCO4)c1` [Icotinib] had a nuclei count of 102.5 ± 0.67.
Under `C=CC(=O)Nc1cc(Nc2nccc(-c3cn(C)c4ccccc34)n2)c(OC)cc1N(C)CCN(C)C` stands 33.
With `O=C(O)c1ccc(-c2c[nH]c3ncc(-c4ccccc4)cc23)cc1C1CCCC1` the figure was 74.3 and 67.3.
`Cc1ncc(CO)c(CO)c1O` [Pyridoxine hydrochloride] gave a nuclei count of 91.6.
Under `CN1CCc2cc(Cl)c(O)cc2[C@@H](c2ccccc2)C1` stands 103.
For `CC1(C)[C@H](C(=O)O)N2C(=O)C[C@H]2S1(=O)=O` [Sulbactam], the nuclei count came to 108.
As to `CC1(C)[C@H](C(=O)O)N2C(=O)C[C@H]2S1(=O)=O` [Sulbactam sodium (Unasyn)], the nuclei count turned out to be 87.4.
Compound `CC(C)c1cc(-c2n[nH]c(=O)n2-c2ccc3c(ccn3C)c2)c(O)cc1O` [Ganetespib (STA-9090)] had a nuclei count of 52.1.
Turning to `O=C(O)C1CCCN(CCC=C(c2ccccc2)c2ccccc2)C1` (configuration not stated), the nuclei count turned out to be 95.2.
For `CC(=O)O[C@]1(C(C)=O)CC[C@H]2[C@@H]3C=C(Cl)C4=CC(=O)[C@@H]5C[C@@H]5[C@]4(C)[C@H]3CC[C@@]21C` [Cyproterone acetate], the nuclei count worked out at 101 ± 4.3.
With `COc1cccc(CCc2ccccc2OCC[C@@H]2C[C@@H](O)CN2C)c1` the figure was 101; with `Clc1ccc(CO/N=C(\Cn2ccnc2)c2ccc(Cl)cc2Cl)c(Cl)c1` [Oxiconazole Nitrate], 97.9.
Under `COc1ccc(-c2ccc3ncc4c(c3c2)n(-c2ccc(N3CCNCC3)c(C(F)(F)F)c2)c(=O)n4C)cn1` stands 16.4 ± 5.4; under `C#C[C@]1(OC(C)=O)CC[C@H]2[C@@H]3CCC4=CC(=NO)CC[C@@H]4[C@H]3CC[C@@]21CC` (mixture of isomers) [Norgestimate], 93.5; under `O=C(O)COCCN1CCN(C(c2ccccc2)c2ccc(Cl)cc2)CC1` (configuration not stated) [Cetirizine dihydrochloride], 97.8 ± 2.9.
Under `C=C1C[C@@]2(O)O[C@@]3(C[C@H]2C(C)C)[C@@H](C)CC[C@@H]13` [Curcumol] stands 98.9; under `Cn1cc(-c2cnn3c(N)c(Br)c([C@@H]4CCCNC4)nc23)cn1`, 72.5.
`N[C@@H]1CONC1=O` [D-cycloserine] had a nuclei count of 101.
With `CCCSc1nc(N[C@@H]2C[C@H]2c2ccc(F)c(F)c2)c2nnn([C@@H]3C[C@H](OCCO)[C@@H](O)[C@H]3O)c2n1` [Ticagrelor] the figure was 99.4; with `C=CC(=O)Nc1cccc(Nc2nc(Nc3ccc(Oc4ccnc(C(=O)NC)c4)cc3)ncc2F)c1`, 63.4; with `CCCOC(=O)c1cc(O)c(O)c(O)c1` [N-Propyl gallate], 82.9.
Compound `N=C(N)Nc1ccc(C(=O)Oc2ccc3cc(C(=N)N)ccc3c2)cc1` [Nafamostat mesylate] gave a nuclei count of 99.1.
Turning to `NC(N)=Nc1ccc(Cl)cc1` [4-Chlorophenylguanidine hydrochloride], the nuclei count is 108.
`O=C(O)Cc1nn(Cc2ccc(Br)cc2F)c(=O)c2ccccc12` [Statil]: the nuclei count stood at 99.8.
Under `CC(=O)Nc1nc2c(Oc3cc(-c4ccc(C(F)(F)F)cc4)ncn3)cccc2s1` stands 91.5.
With `N[C@@H](Cc1c[nH]c2ccc(O)cc12)C(=O)O` [5-hydroxytryptophan (5-HTP)] the figure was 104; with `CN1C[C@@H]2C[C@H]1CN2c1cc2c(cc1F)c(=O)c(C(=O)O)cn2C1CC1` [Danofloxacin Mesylate], 94.6; with `CC(C)n1nc(-c2ccc3oc(N)nc3c2)c2c(N)ncnc21`, 76.12 ± 0.4.
`Clc1ccc(Cn2c(CN3CCCC3)nc3ccccc32)cc1` [Clemizole hydrochloride]: the nuclei count was found to be 104.
Under `COc1cc2nc(N(C)CCCNC(=O)C3CCCO3)nc(N)c2cc1OC` (configuration not stated) [Alfuzosin hydrochloride] stands 98.1.
Consider `CC1(C)CC(=O)c2c(C(F)(F)F)nn(-c3ccc(C(N)=O)c(N[C@H]4CC[C@H](O)CC4)c3)c2C1`, for which the nuclei count was 53.5.
Under `O=C(O)/C=C/c1ccc(O)c(O)c1` [Caffeic acid] stands 110; under `CCCCc1nc2cc(/C=C/C(=O)NO)ccc2n1CCN(CC)CC` [SB939 (Pracinostat)], 27.5.
The compound `Cc1ccc(CC2(O)CCN(CCOc3ccc(O)cc3)CC2)cc1` showed a nuclei count of 87.3.
Under `O=C1Nc2ccccc2/C1=C1/Nc2ccccc2C1=O` [Indirubin] stands 110.
Under `N=C(N)NC(=O)Cc1c(Cl)cccc1Cl` [Guanfacine hydrochloride] stands 105 ± 5.4; under `O=C(O)C(O)Cc1ccc(O)c(O)c1` (configuration not stated) [Sodium Danshensu], 93.7.
As for `COC(=O)C1=C(C)NC(C)=C(C(=O)NCCCN2CCC(c3ccccc3)(c3ccccc3)CC2)C1c1ccc([N+](=O)[O-])cc1` (configuration not stated), the nuclei count turned out to be 55.1.
With `Oc1ccc(OC2CCCCO2)cc1` (configuration not stated) [Deoxyarbutin] the figure was 91.1.
Under `Nc1cccc2c1C(=O)N(C1CCC(=O)NC1=O)C2=O` (configuration not stated) [Pomalidomide] stands 75.7; under `O=C(/C=C/c1ccccc1)NC(NC(=S)Nc1cccc2cccnc12)C(Cl)(Cl)Cl` (configuration not stated) [Salubrinal], 100.
In the case of `CC(=O)O[C@@]12CO[C@@H]1C[C@H](O)[C@@]1(C)C(=O)[C@H](O)C3=C(C)[C@@H](OC(=O)[C@H](O)[C@@H](NC(=O)OC(C)(C)C)c4ccccc4)C[C@@](O)([C@@H](OC(=O)c4ccccc4)[C@H]21)C3(C)C` [Docetaxel], the nuclei count was 41.
For `CC(=O)O[C@@]12CO[C@@H]1C[C@H](O)[C@@]1(C)C(=O)[C@H](O)C3=C(C)[C@@H](OC(=O)[C@H](O)[C@@H](NC(=O)OC(C)(C)C)c4ccccc4)C[C@@](O)([C@@H](OC(=O)c4ccccc4)[C@H]21)C3(C)C` [Docetaxel (Taxotere)], the nuclei count worked out at 48.
With `O=C(NCCCN1CCC2(CC1)OCc1ccccc12)[C@H]1CCCN1Cc1ccccc1` the figure was 105; with `Nc1ccn([C@@H]2O[C@H](CO)[C@@H](O)C2(F)F)c(=O)n1` [Gemcitabine HCl (Gemzar)], 60.7.
With `Nc1ccn([C@@H]2O[C@H](CO)[C@@H](O)C2(F)F)c(=O)n1` [Gemcitabine] the figure was 54.5; with `COc1ccccc1N1CCN(CCN(C(=O)C2CCCCC2)c2ccccn2)CC1`, 101.
With `CN1C(=O)CC(c2ccccc2)C1=O` (configuration not stated) [Phensuximide], the nuclei count came to 107.
In the case of `CC1CNc2c(cccc2S(=O)(=O)N[C@@H](CCCNC(=N)N)C(=O)N2CC[C@@H](C)C[C@@H]2C(=O)O)C1` (some centres not stated) [Argatroban], the nuclei count was 110 ± 1.2.
`CN(C)CCN(Cc1ccccc1)c1ccccn1` [Tripelennamine hydrochloride] came in with a nuclei count of 104.
Under `Fc1ccc(Cl)cc1-c1nc(Nc2ccncc2)c2nccnc2n1` stands 93.8.
Under `CO[C@H]1C[C@@H]2CC[C@@H](C)[C@@](O)(O2)C(=O)C(=O)N2CCCC[C@H]2C(=O)O[C@H]([C@H](C)C[C@@H]2CC[C@@H](OCCO)[C@H](OC)C2)CC(=O)[C@H](C)/C=C(\C)[C@@H](O)[C@@H](OC)C(=O)[C@H](C)C[C@H](C)/C=C/C=C/C=C/1C` [Everolimus (RAD001)] stands 94.1 ± 4.5; under `C[n+]1cc2c3c(ccc2c2ccc4cc5c(cc4c21)OCO5)OCO3` [Sanguinarine chloride], 12.
With `Cc1cc(C)c(Nc2ccnc(Nc3ccc(C#N)cc3)n2)c(C)c1` [Dapivirine] the figure was 58.9; with `O=C(c1ccc(Nc2nccc(-c3cc4ccccc4s3)n2)cc1)N1CCC(N2CCCC2)CC1`, 16.6.
`Clc1ccc(CSC(Cn2ccnc2)c2ccc(Cl)cc2Cl)cc1` (configuration not stated) [Sulconazole nitrate] yielded a nuclei count of 88.5.
Under `Nc1ncnc2c1ncn2[C@@H]1O[C@H](CO)[C@@H](O)[C@H]1O` [Adenosine (Adenocard)] stands 93.8.
Take `CCCN(CCC)S(=O)(=O)c1ccc(C(=O)O)cc1` [Probenecid]: the nuclei count came out at 93.4.
Under `CCNC(=O)Nc1ccc(-c2nc3c(c(N4CCOC[C@@H]4C)n2)CCN(C2COC2)C3)cc1` stands 75.4 ± 5.5; under `C[C@]12CC[C@@H]3c4ccc(O)cc4CC[C@H]3[C@@H]1CC[C@@H]2O` [17b-Estradiol], 90.9.
Under `C[C@]12CC[C@@H]3c4ccc(O)cc4CC[C@H]3[C@@H]1CC[C@@H]2O` [Estradiol] stands 101; under `C[C@]12CC[C@@H]3c4ccc(O)cc4CC[C@H]3[C@@H]1CC[C@@H]2O` [Estradiol-17 beta], 98.8; under `Cc1c(NC(=O)N2CCOCC2)ccc2c1c1ccccc1n2C(C)C`, 94.6.
The compound `O=C(O)c1ccc(-c2ccc3cc(O)c(C45CC6CC(CC(C6)C4)C5)cc3c2)cc1` showed a nuclei count of 105.
Under `Cc1c(C2CCN(CCc3ccccc3)CC2)noc1-c1ccc(Cl)cc1` [L-741,742 hydrochloride] stands 102; under `C[C@H](NC(=O)/C(C#N)=C/c1cccc(Br)n1)c1ccccc1`, 7.49 ± 1.2; under `CC(C)c1ccc(NC(=O)Cn2cnc3c2c(=O)n(C)c(=O)n3C)cc1`, 103.
Consider `CCOC(=O)CCNc1cc(N2CCc3ccccc3CC2)nc(-c2ccccn2)n1`, for which the nuclei count is 64.1 and 62.6.
The compound `COc1ccc2[nH]c([S+]([O-])Cc3ncc(C)c(OC)c3C)nc2n1` (configuration not stated) [Tenatoprazole] yielded a nuclei count of 92.9.
